# Results taken from PubChem BioAssay AID488969 (Vanderbilt High Throughput Screening Facility, 2010).
# Whole data set: some 110,000 compounds, median “z-score” near -0.1, cut for the highest 2% near 2. The list shows a part of the results. Active and inactive are the calls of the source.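 Rule for the calls: active = z-score in the third read window above 3 or below -3; inactive = the rest.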
# Target: Metabotropic glutamate receptor 8 (Rattus norvegicus) (UniProt P70579)
# Experiment: mGluR8 Gi/Go-coupled signaling modulation – cell-based, rat, thallium flux, HTS, primary screen (AID 488969)
# Settings: HEK293 rat mGluR8, GIRK (G protein-gated inwardly rectifying potassium channel) thallium flux, FluoZin2; at 10 µM; stronger effect = higher value; submaximal glutamate (EC20) added with thallium
# UniProt P70579, sequence (P70579 whole entry, looked up): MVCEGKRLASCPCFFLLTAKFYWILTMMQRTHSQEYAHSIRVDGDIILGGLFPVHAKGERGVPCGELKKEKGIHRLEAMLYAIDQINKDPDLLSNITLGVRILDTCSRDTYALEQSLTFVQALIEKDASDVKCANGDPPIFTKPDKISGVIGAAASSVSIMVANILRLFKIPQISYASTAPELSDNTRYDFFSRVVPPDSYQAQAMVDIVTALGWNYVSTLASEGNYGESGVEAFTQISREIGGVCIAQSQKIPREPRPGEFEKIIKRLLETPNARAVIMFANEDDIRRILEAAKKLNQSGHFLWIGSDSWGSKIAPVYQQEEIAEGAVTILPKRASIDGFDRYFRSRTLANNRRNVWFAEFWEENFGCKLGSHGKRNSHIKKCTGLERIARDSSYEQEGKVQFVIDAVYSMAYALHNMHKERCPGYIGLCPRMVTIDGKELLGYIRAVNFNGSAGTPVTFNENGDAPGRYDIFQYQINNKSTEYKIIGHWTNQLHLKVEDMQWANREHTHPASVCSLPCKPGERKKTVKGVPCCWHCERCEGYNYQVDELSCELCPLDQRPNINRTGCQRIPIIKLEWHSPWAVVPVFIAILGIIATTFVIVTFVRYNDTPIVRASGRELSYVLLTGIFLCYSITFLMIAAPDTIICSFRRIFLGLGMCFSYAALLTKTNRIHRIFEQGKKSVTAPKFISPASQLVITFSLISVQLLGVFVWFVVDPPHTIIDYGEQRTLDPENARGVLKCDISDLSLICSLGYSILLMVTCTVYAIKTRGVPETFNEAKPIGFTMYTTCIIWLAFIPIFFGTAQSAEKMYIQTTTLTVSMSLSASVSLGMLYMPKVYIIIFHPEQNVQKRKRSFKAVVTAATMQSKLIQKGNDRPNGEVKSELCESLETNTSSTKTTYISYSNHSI
row,Structure (SMILES),z-score
1,CC(C)(C)Cc1nnc(NC(=O)c2cc(-c3ccccc3)nc3ccccc23)s1,-0.56
2,CN(C)c1oc(-c2ccccc2F)nc1C#N,-1.32
3,CC(CC1CC(C)(C)OC1=O)C(=O)Nc1nncs1 (stereo not given),0.694
4,CCC(Oc1ccccc1)C(=O)Nc1ccccn1 (stereo not given),-0.398
5,O=C(/C=C/c1ccc(F)cc1)NCCCN1CCN(CCCNC(=O)/C=C/c2ccc(F)cc2)CC1,-0.123
6,COC(=O)Cn1c(CCC(=O)O)ccc1-c1ccccc1,-0.232
7,Cc1ccccc1C(=O)c1cccn1CC(=O)NCc1ccc2c(c1)OCO2,-0.139
8,COC(=O)c1cccnc1SCc1ccccc1,-0.304
9,COc1cccc(N2C(=O)CC(N3CCN(S(=O)(=O)c4ccccc4)CC3)C2=O)c1 (stereo not given),0.497
10,COc1ccc(Br)cc1C1CC(=O)N2CN(Cc3ccccc3)CSC2=C1C#N (stereo not given),0.187
11,CCOc1ccc(-n2c(-c3ccco3)n[nH]c2=S)cc1,0.316
12,O=C(NC1CCCC1)C1CCN(S(=O)(=O)c2cccc3cccnc23)CC1,0.151
13,O=C(CSc1nnc(Cc2cc(=O)[nH]c(=O)[nH]2)n1-c1ccccc1)N1CCCCC1,-0.109
14,COc1ccc(NC(=O)C2CC(=O)NC(Nc3cccc(C)c3)=N2)cc1 (stereo not given),-0.0281
15,CC(=O)Nc1nc(-c2ccccc2)ns1,-0.0207
16,COc1cc2c(cc1OC)CN(c1ccc([N+](=O)[O-])cc1C#N)CC2,-0.633
17,COc1ccc(C(=O)N=C2CCC(C#N)=C3c4cc(OC)c(OC)cc4CCN23)cc1,-0.0841
18,O=C(Nc1nc2ccccc2n1Cc1ccccc1)c1ccc(COc2ccccc2[N+](=O)[O-])o1,-0.235
19,CCN(CC)CCNC(=O)c1ccc(Cl)c(S(=O)(=O)Nc2ccc(Cl)cc2)c1,1
20,Cn1c(=O)cc(SCC(=O)N2CCN(C(=O)c3ccco3)CC2)c2ccccc21,0.419
21,O=C(CCCc1nc(-c2ccccc2)no1)N1CCOCC1,0.382
22,Cc1c(N)cccc1-c1nc2ccccc2[nH]1,0.0557

row,Structure (SMILES),z-score
1,CC(C)(C)c1cc(NCCCn2ccnc2)n2ncc(-c3ccc(Cl)cc3)c2n1,0.26
2,COC(=O)c1c(-c2ccc(C)cc2)csc1NC(=S)NC(=O)c1cc(OC)cc(OC)c1,0.165
3,Cc1cc(C)c2c(c1)/C(=N/NS(=O)(=O)c1ccccc1)CCC2,-1.09
4,COc1ccc(Cl)cc1C(=O)Nn1c(-c2cccs2)nc2ccccc2c1=O,0.00602
5,O=C(NCC(c1cccs1)N1CCOCC1)c1ccc(Cl)s1 (stereo not given),-0.181
6,CN=C1SC(CC(=O)Nc2ccc(C(=O)O)cc2)C(=O)N1C (stereo not given),-0.426
7,O=C(NCc1ccccc1)c1ccc(Br)cc1Br,-0.339
8,CCCCCOc1ccc(NC(=O)CSc2cccc3cccnc23)cc1,-0.746
9,CS(=O)(=O)Nc1ccc(C(=O)N2CCCCC2)cc1,-0.17
10,CCCCCCOc1ccc(N2C(=O)CC(N3CCC(C(=O)OCC)CC3)C2=O)cc1 (stereo not given),-0.526
11,CC(CCc1ccccc1)NC(=O)c1ccc(C(=O)NC(C)CCc2ccccc2)cc1 (stereo not given),0.659
12,COc1nc(Cl)cn(-c2ccc(Cl)cc2)c1=O,-0.155
13,Cc1cc(C)cc(OCc2ccc(C(=O)O)o2)c1,-0.00131
14,Cc1cccc(N(C(=O)c2ccc(Cl)cc2)C2CS(=O)(=O)CC2OC(=O)c2ccc(Cl)cc2)c1 (stereo not given),-0.0403
15,CC12CCC(C(=O)NCc3ccc4c(c3)OCO4)(OC1=O)C2(C)C (stereo not given),-0.608
16,COC(=O)CN1C(c2ccc(Cl)cc2)=Nc2ccc(Cl)cc2C1c1ccccc1 (stereo not given),-0.574
17,Cc1cccc(N=c2oc3cc(O)ccc3cc2C(N)=O)c1,0.0144
18,COc1ccccc1C1C(C(C)=O)=C(C)N=c2s/c(=C\c3cc(OC)c(OC)c(OC)c3)c(=O)n21 (stereo not given),-0.467
19,COc1ccc(CSc2nncn2C)cc1[N+](=O)[O-],-0.262
20,CCCc1nc(SCC(=O)N2CCCc3ccccc32)c2c(=O)n(C)c(=O)n(C)c2n1,-1.35
21,COc1cc2c(cc1OC)CN(Cc1ccc(C)s1)CC2,-0.241
22,O=C(CN1CCN(S(=O)(=O)c2ccccc2)CC1)Nc1ccc(Cl)c(Cl)c1,-0.271

row,Structure (SMILES),z-score
1,CCCc1[nH]nc2c1C(c1cn[nH]c1-c1ccc(F)cc1)C(C#N)=C(N)O2 (stereo not given),0.897
2,O=C(CCCSc1nc2ccccc2[nH]1)Nc1ccccc1,0.433
3,COCCn1c(Cc2ccccc2)nnc1SCc1ccc([N+](=O)[O-])cc1,0.0809
4,C1=Nc2c(NCc3ccccc3)ncnc2Oc2ccccc21,-0.9
5,COc1ccc(Sc2nc3ccccc3n3c(C(F)(F)F)nnc23)cc1,0.0147
6,Cc1nc2oc(C(=O)c3ccccc3)c(N)c2c2c1COC(C)(C)C2,0.235
7,CCCC(=O)Nc1ccc(C(=O)Nc2nnc(COCC)s2)cc1,-0.294
8,Cc1ccc(-c2nc3cc(Cl)ccc3o2)cc1,0.239
9,COC(=O)c1ccc(COc2cccc(OC)c2)o1,-0.263
10,Cc1nn(-c2ccccc2)c(Cl)c1/C=N/Nc1ccc(S(=O)(=O)Nc2ccccc2C(=O)O)cc1[N+](=O)[O-],-0.0266
11,CC(C)CN(CC(C)C)c1nc(N)c(C#N)c(CC#N)c1C#N,-0.436
12,CSc1ccccc1-n1nnnc1SCC(=O)Nc1ccccc1C,-0.294
13,COc1cc(/C=C2\CC/C(=C\c3cc(OC)c(OC)c(OC)c3)C2=O)cc(OC)c1OC,0.0382
14,CC1=C(C(=O)OCc2ccccc2)C(c2cccnc2)c2c(n(C)c(=O)n(C)c2=O)N1 (stereo not given),-0.21
15,Cc1[nH]n(C(N)=S)c(=O)c1C(c1ccccc1)C(C#N)C#N (stereo not given),-0.000446
16,O=C(Nc1cc(Sc2ccccn2)cc([N+](=O)[O-])c1)c1cccc(Cl)c1,-0.308
17,CC1=Nc2cc(C(=O)NCc3ccco3)ccc2Sc2ccc(C)cc21,0.368
18,Cc1cc(C)cc(NC(=S)N2CCN(c3ccc(F)cc3)CC2)c1,-0.0575
19,O=C(CSc1nnc(-c2ccc(Cl)s2)o1)N1CCc2ccccc21,-0.569
20,CC1(C)CNC(=O)c2sc(N3CCOCC3)nc2C1,0.579
21,CCCNC(=S)N1CCN(C(c2ccccc2)c2ccccc2)CC1,-0.141
22,CC(C)(C)C(=O)NC(Nc1cccc2cccnc12)C(Cl)(Cl)Cl (stereo not given),0.273

row,Structure (SMILES),z-score
1,Cc1ccc(-c2noc(CSc3nnnn3C3CCCCC3)n2)cc1,-0.0984
2,CCOC(=O)CSc1nnc(CNC(=O)c2ccc(OC)cc2)n1Cc1ccccc1,0.573
3,Cc1ccsc1/C=N/NC(=O)c1cccs1,0.356
4,CC(=O)c1c(C)cc(C)c(CSc2nnc(-c3ccco3)o2)c1C,-0.15
5,COc1ccccc1N(CN1C(=O)c2ccccc2C1=O)C(=O)c1cccnc1,0.271
6,CCOC(=O)c1ccc(N(C(=O)c2cnccn2)C(C(=O)NC2CCCCC2)c2cn(C)nc2C)cc1 (stereo not given),0.17
7,CC(NC(=O)c1ccc(F)cc1)c1ccc(F)cc1 (stereo not given),0.139
8,COc1ccc(NC(=O)CCCn2c(=O)c3sccc3n(Cc3ccc(C)cc3)c2=O)cc1,-0.662
9,CCOC(=O)N1CCN(C(=O)c2ccc(N3CCCC3=O)cc2)CC1,0.0663
10,CCc1nnc(NC(=O)c2ccc(OC)cc2OC)s1,-0.3
11,Cc1cnc(NC(=O)c2ccc(-c3nc4ccccc4s3)o2)s1,0.55
12,CCOCCOC(=O)C1=C(C)N(C)C(=O)NC1c1ccccc1F (stereo not given),-0.146
13,CCOc1ccc(-c2[nH]ncc2Oc2ccccc2OC)c(O)c1,1.27
14,CC(Oc1ccc(-c2ccccc2)c(F)c1)c1ccn(S(=O)(=O)c2cccc3ccccc23)n1 (stereo not given),-0.191
15,Cc1ccc(/C=C(\CCC(=O)O)c2nc3ccccc3s2)cc1[N+](=O)[O-],-1.63
16,CCCCCC1CC1C(=O)N/N=C/c1ccc(N(C)C)cc1 (stereo not given),-3.78e-05
17,CCc1ccc(-c2cc(C(F)(F)F)n3nc(C(=O)Nc4cnn(Cc5ccc(C)cc5)c4)cc3n2)s1,0.425
18,CN(C)S(=O)(=O)N1CCN(CC(O)COc2ccc(C(=O)c3ccccc3)cc2)CC1 (stereo not given),-0.781
19,Cc1cc(C)cc(OCC(=O)N2N=C(C(F)(F)F)CC2(O)C(C)(C)C)c1 (stereo not given),active: 4.9
20,Cc1ccc(C(c2nnnn2C2CCCC2)N2c3ccccc3CC2C)cc1 (stereo not given),0.00667
21,Cc1cccc(N2C(=O)C3C4CC(C(Br)C4Br)C3C2=O)n1 (stereo not given),-0.037
22,Cc1ccc(C(=O)NC(=S)Nc2cccc(-c3nc4ccccc4s3)c2)cc1,0.0946

row,Structure (SMILES),z-score
1,CCOC(=O)Cc1nnc(NC(=O)C(CC)Sc2nnc3c4ccccc4n(C)c3n2)s1 (stereo not given),-0.294
2,O=P(OC1CCCCC1)(OC1CCCCC1)C(O)c1ccc(Cl)cc1Cl (stereo not given),-0.0565
3,O=c1oc2cc(Oc3ccc(C(F)(F)F)cc3[N+](=O)[O-])ccc2c2c1CCCC2,0.234
4,C#CC[N+](C)(C)CC#Cc1ccc(Cl)cc1,0.842
5,CCn1c(SCc2nc(-c3ccc(Cl)cc3)no2)nnc1-c1ccco1,-0.0817
6,Cc1[nH]c2ccccc2c1C(=O)CN1CCCC1,-1.99
7,O=C(N/N=C1\CCCc2ccccc21)c1cccc([N+](=O)[O-])c1,-0.275
8,CC(=O)Oc1cc2c(C(C)=O)coc2c2ccccc12,0.821
9,Cc1nc2[nH]onc2c2nccc(=O)c12,-0.354
10,COc1ccc(Cc2nnc(-c3ccc(F)cc3)o2)cc1OC,0.266
11,CCn1c(=O)cc(SCC(=O)NCc2ccc(C)o2)c2ccccc21,0.121
12,Nc1nc(C2CCCCC2)cs1,0.293
13,COc1ccccc1OCc1nc(C#N)c(N2CCC(C(N)=O)CC2)o1,0.0831
14,Cc1ccc(C(=O)Nc2ccccc2OC(F)F)cc1,-0.453
15,CCc1ccc(NC(=O)N(CCCN2CCOCC2)Cc2cccs2)cc1,-0.617
16,N#Cc1c2c(c(NCc3ccco3)n3c1nc1ccccc13)CCC2,-2.19
17,CON(C)c1nc(OCC#N)nc(N(C)C)n1,0.0137
18,Cc1ccc(CSCC(=O)Nc2c(C)n(C)n(-c3ccccc3)c2=O)cc1,-0.099
19,O=C(COC(=O)CCC1CCCCC1)Nc1ccc(OC(F)F)cc1,0.594
20,COc1cc(/C=C2/C(=O)ON=C2c2ccccc2)ccc1O,-0.382
21,COc1ccc(NC(=O)C2CCCN(C)C2)cc1OCC(C)C (stereo not given),0.0222
22,CC(=O)Nc1ccc(S(=O)(=O)Nc2nc(C)cc(-n3nc(C)cc3C)n2)cc1,-0.313
